Experimental data as given in PMC4336329 (PLoS ONE, 2015).
Out of some 310,000 compounds screened, about 14,000 (4.5%) showed an effect of 50% or more. Effects have a minus sign here. The list shows a part of the results.
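Note: peak tail current of the secondary pulse compared with the same well before compound.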

Each compound was assayed against human ether-à-go-go-related gene (hERG) potassium channel (human, UniProt Q12809) (assay: primary screen, population patch clamp on CHO cells stably expressing hERG).
human ether-à-go-go-related gene (hERG) potassium channel, sequence (Q12809 whole entry, looked up): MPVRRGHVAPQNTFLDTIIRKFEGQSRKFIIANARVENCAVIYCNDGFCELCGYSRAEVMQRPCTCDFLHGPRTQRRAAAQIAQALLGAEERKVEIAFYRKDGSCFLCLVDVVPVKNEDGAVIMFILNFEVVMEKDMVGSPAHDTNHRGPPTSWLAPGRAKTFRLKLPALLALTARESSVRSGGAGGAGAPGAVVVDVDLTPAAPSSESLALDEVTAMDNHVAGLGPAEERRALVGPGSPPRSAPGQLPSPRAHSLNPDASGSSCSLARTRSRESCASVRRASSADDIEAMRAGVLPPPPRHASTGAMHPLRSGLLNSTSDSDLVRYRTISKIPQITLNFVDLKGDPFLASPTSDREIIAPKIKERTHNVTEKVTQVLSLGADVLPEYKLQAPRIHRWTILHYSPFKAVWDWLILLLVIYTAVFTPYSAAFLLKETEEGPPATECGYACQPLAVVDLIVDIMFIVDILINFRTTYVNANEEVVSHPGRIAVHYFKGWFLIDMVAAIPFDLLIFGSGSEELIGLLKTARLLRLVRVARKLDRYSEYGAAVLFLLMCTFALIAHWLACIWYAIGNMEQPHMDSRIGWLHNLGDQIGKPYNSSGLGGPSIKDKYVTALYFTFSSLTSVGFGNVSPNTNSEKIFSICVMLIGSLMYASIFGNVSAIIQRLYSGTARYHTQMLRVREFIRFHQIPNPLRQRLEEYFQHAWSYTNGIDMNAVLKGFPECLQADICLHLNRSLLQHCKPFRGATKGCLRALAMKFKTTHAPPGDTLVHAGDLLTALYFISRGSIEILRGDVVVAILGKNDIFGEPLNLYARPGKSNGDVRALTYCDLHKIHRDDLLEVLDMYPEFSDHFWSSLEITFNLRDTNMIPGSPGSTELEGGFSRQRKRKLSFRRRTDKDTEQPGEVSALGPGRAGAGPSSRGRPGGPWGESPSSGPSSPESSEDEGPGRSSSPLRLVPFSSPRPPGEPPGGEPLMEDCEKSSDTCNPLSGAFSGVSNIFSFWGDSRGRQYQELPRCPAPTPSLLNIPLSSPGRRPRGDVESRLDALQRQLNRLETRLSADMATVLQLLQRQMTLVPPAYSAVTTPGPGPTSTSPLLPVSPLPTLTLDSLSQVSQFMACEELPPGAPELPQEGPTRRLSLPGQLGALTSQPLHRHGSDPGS
With `O=C(CCN=C1NS(=O)(=O)c2ccccc21)OCc1nnc(-c2ccccc2)o1` the “hERG current change (%, negative = inhibition) at 10uM” value was 2.39%.
`CCOC(=O)C1=C(COC(=O)CNC(=O)c2cccc(C)c2)NC(=O)NC1C` (centres unmarked) was tested, and the “hERG current change (%, negative = inhibition) at 10uM” value was 0.589%.
For `C=CCOc1ccc(Br)cc1CNC(C)(C)C.Cl`, the “hERG current change (%, negative = inhibition) at 10uM” value was -14.7%.
`COc1ccc(N2CCN(C(=O)CC34CC5CC(CC(C5)C3)C4)CC2)c([N+](=O)[O-])c1` was tested, and the “hERG current change (%, negative = inhibition) at 10uM” value was 0.229%.
With `Cn1c(=O)c2sccc2n2c(CCCC(=O)Nc3ccccc3)nnc12` the “hERG current change (%, negative = inhibition) at 10uM” value was -11.8%.
With `Cc1cc(C)nc(N/C(=N\S(=O)(=O)Cc2ccccc2)Nc2ccccc2Br)n1` the “hERG current change (%, negative = inhibition) at 10uM” value was 7.93%.
With `C=CCn1c(-c2csc3ccccc23)n[nH]c1=S` the “hERG current change (%, negative = inhibition) at 10uM” value was 18.3%.
In the case of `CCCCc1n(CC(=O)c2ccc(Cl)cc2)c2ccccc2[n+]1C.[Br-]`, the “hERG current change (%, negative = inhibition) at 10uM” value is reported as 8.02%.
In the case of `S=C(c1cccs1)N1CCCC1`, the “hERG current change (%, negative = inhibition) at 10uM” value is reported as 14.1%.
In the case of `Cc1ccc(C)c(NC(=O)CN(C)C(=O)/C=C/c2ccco2)c1`, the “hERG current change (%, negative = inhibition) at 10uM” value is reported as 15.7%.
With `C(=N\Nc1nc(N2CCOCC2)nc(N2CCOCC2)n1)/c1cccnc1` the “hERG current change (%, negative = inhibition) at 10uM” value was -12.1%.
In the case of `COc1ccc(C)cc1S(=O)(=O)N(C)CC(=O)Nc1ccc2c(c1)OCCO2`, the “hERG current change (%, negative = inhibition) at 10uM” value is reported as -6.52%.
With `Clc1ccc(C2N3CCCN23)c(Cl)c1` (centres unmarked) the “hERG current change (%, negative = inhibition) at 10uM” value was 20.4%.
`COc1cc(C)nc(NCc2ccccc2)n1` was tested, and the “hERG current change (%, negative = inhibition) at 10uM” value was 10.9%.
`COc1ccccc1N1CCN(S(=O)(=O)c2c(C(=O)N3CCOCC3)c(C)n(C)c2C)CC1` was tested, and the “hERG current change (%, negative = inhibition) at 10uM” value was 15.6%.
For `CC(C)(C)OC(=O)NNC(=O)NC12CC3CC(CC(C3)C1)C2`, the “hERG current change (%, negative = inhibition) at 10uM” value was -4.97%.
In the case of `Cc1cccc(N=Cc2cc3c(cc2[N+](=O)[O-])OCO3)c1`, the “hERG current change (%, negative = inhibition) at 10uM” value is reported as 15.6%.
`CC1CC(C)(C)Nc2ccc(OC(=O)c3ccco3)cc21` (centres unmarked) was tested, and the “hERG current change (%, negative = inhibition) at 10uM” value was 8.5%.
For `COc1ccc(N(CC(=O)Nc2ccc(S(=O)(=O)N3CCCC3)cc2)S(C)(=O)=O)cc1OC`, the “hERG current change (%, negative = inhibition) at 10uM” value was 2.29%.
`O=C(CNC(=O)c1ccccc1)NCCc1ccc(O)c(O)c1` was tested, and the “hERG current change (%, negative = inhibition) at 10uM” value was 1.15%.
For `O=C(NCCN1CCN(c2cccc(Cl)c2)CC1)Nc1ccccc1`, the “hERG current change (%, negative = inhibition) at 10uM” value was -35.1%.
With `O=S(=O)(c1ccccc1)c1cc(O)ccc1O` the “hERG current change (%, negative = inhibition) at 10uM” value was 16.9%.
With `O=C1COc2ccc(S(=O)(=O)CCC(=O)N3CCN(c4cccc(Cl)c4)CC3)cc2N1` the “hERG current change (%, negative = inhibition) at 10uM” value was -58.4%.
In the case of `O=C(CCCCn1c(=O)[nH]c2ccsc2c1=O)NCC1CCCO1` (centres unmarked), the “hERG current change (%, negative = inhibition) at 10uM” value is reported as 4.17%.
In the case of `NC(=O)NC(=O)CN1C(=O)NC(c2ccccc2)(c2ccccc2)C1=O`, the “hERG current change (%, negative = inhibition) at 10uM” value is reported as 4.8%.
In the case of `COc1ccc(NC(=O)NNC(=O)c2ccccc2-n2cccc2)cc1OC`, the “hERG current change (%, negative = inhibition) at 10uM” value is reported as 25.4%.
With `CC(C)Cn1c(Br)nc2c1c(=O)n(CCC#N)c(=O)n2C` the “hERG current change (%, negative = inhibition) at 10uM” value was -23.8%.
For `CCc1ccc(CN2C(=O)c3ccccc3C2C(=O)NCC2CCCO2)cc1` (centres unmarked), the “hERG current change (%, negative = inhibition) at 10uM” value was 8.88%.
In the case of `O=C1/C(=C\c2ccccc2)C2OCC=C3CN4CCC56c7ccccc7N1C5C2C3CC46` (centres unmarked), the “hERG current change (%, negative = inhibition) at 10uM” value is reported as -53.4%.
`O=C(Cn1cnc2ccccc2c1=O)NCCC(=O)Nc1ccccc1C(F)(F)F` was tested, and the “hERG current change (%, negative = inhibition) at 10uM” value was 13.9%.
In the case of `CS(=O)(=O)N(CC(=O)N1CCN(Cc2ccccc2)CC1)c1ccc(F)cc1`, the “hERG current change (%, negative = inhibition) at 10uM” value is reported as -3.35%.
`Cc1ccc2[nH]c(=O)c3cc(C(=O)N(C)c4ccccc4C)sc3c2c1` was tested, and the “hERG current change (%, negative = inhibition) at 10uM” value was 12.4%.
In the case of `Cc1cc(C)nc(SCc2nnc(SCC(=O)Nc3nc(-c4ccccc4)cs3)n2-c2ccccc2)n1`, the “hERG current change (%, negative = inhibition) at 10uM” value is reported as -6.47%.
With `CC1=NN(C(=O)c2ccc(Cn3cc(Br)c([N+](=O)[O-])n3)o2)C(O)(C(F)(F)F)C1` (centres unmarked) the “hERG current change (%, negative = inhibition) at 10uM” value was -16.6%.
In the case of `Cc1c(/C=N/NC(=O)c2cccnc2)c2ccccc2n1Cc1ccccc1`, the “hERG current change (%, negative = inhibition) at 10uM” value is reported as 15.8%.
For `Cc1cc(N)n(-c2ccc(C(=O)O)cc2)n1.Cl`, the “hERG current change (%, negative = inhibition) at 10uM” value was 13.6%.
With `Cc1cc(NS(=O)(=O)c2ccc(C3CCCCC3)cc2)no1` the “hERG current change (%, negative = inhibition) at 10uM” value was 8.7%.
With `COC(=O)C(CC(=O)c1cccc(OC)c1)c1ccc(F)cc1` (centres unmarked) the “hERG current change (%, negative = inhibition) at 10uM” value was -1.14%.
`COCCNC(=S)Nc1cc(OC)c(NC(=O)c2ccco2)cc1OC` was tested, and the “hERG current change (%, negative = inhibition) at 10uM” value was -3.62%.
`Br.N=c1n(CC(=O)O)c2ccccc2n1Cc1ccccc1Cl` was tested, and the “hERG current change (%, negative = inhibition) at 10uM” value was 0.122%.
`O=C(CSCC(=O)N1CCCCC1)Nc1nc(-c2ccccc2)c(-c2ccccc2)s1` was tested, and the “hERG current change (%, negative = inhibition) at 10uM” value was 14%.
In the case of `COc1ccc(CC(=O)Nc2ccc(S(=O)(=O)NC(C)C)cc2)cc1`, the “hERG current change (%, negative = inhibition) at 10uM” value is reported as -5.54%.
In the case of `OC1C2(Cc3ccccc3)CN3CCN(C2)CC1(Cc1ccccc1)C3` (centres unmarked), the “hERG current change (%, negative = inhibition) at 10uM” value is reported as -1.47%.
For `CCC1(c2ccccc2)NC(=O)N(CC(=O)Nc2nnc(C3CC3)s2)C1=O` (centres unmarked), the “hERG current change (%, negative = inhibition) at 10uM” value was 10.3%.
With `CCOC(=O)CSc1ccc(S(=O)(=O)N2CCC(C)CC2)cc1[N+](=O)[O-]` the “hERG current change (%, negative = inhibition) at 10uM” value was 5.36%.
`Cn1c(=O)oc2cc(S(=O)(=O)N3CCCC(C(=O)Nc4ccccn4)C3)ccc21` (centres unmarked) was tested, and the “hERG current change (%, negative = inhibition) at 10uM” value was -7.76%.
With `Cc1nn(C)cc1CNC(=O)c1cccc(Br)c1` the “hERG current change (%, negative = inhibition) at 10uM” value was 16.6%.
For `Cc1ccc2c(CC(=O)N(C)c3c(N)n(Cc4ccccc4)c(=O)[nH]c3=O)coc2c1`, the “hERG current change (%, negative = inhibition) at 10uM” value was -4.72%.
In the case of `CCC(CC)N1CCN(CCc2ccccc2)C(CCO)C1` (centres unmarked), the “hERG current change (%, negative = inhibition) at 10uM” value is reported as -19%.
In the case of `Cc1onc(-c2ccccc2Cl)c1C(=O)O/N=C(\N)c1ccc([N+](=O)[O-])o1`, the “hERG current change (%, negative = inhibition) at 10uM” value is reported as -43.6%.
`CCN1C(=O)C(=O)N(Cc2ccc(OC)c(F)c2)C1=O` was tested, and the “hERG current change (%, negative = inhibition) at 10uM” value was 15.1%.
`O=C(Nc1ccc(F)cc1)Nc1nnc(Cc2ccccc2)s1` was tested, and the “hERG current change (%, negative = inhibition) at 10uM” value was 16%.
In the case of `Cc1sc2nc(C3CC3)nc(N3CCN(C(=O)c4ccc(F)cc4)CC3)c2c1C.Cl`, the “hERG current change (%, negative = inhibition) at 10uM” value is reported as -69.8%.
`O=C(NCCc1ccccc1)C(=O)NCC1CCNCC1` was tested, and the “hERG current change (%, negative = inhibition) at 10uM” value was 17%.
In the case of `Cc1ccccc1-n1c(=O)cc(N2CCN(Cc3ccccc3)CC2)[nH]c1=O`, the “hERG current change (%, negative = inhibition) at 10uM” value is reported as 9.88%.
In the case of `O=C(Nc1nncs1)C1(c2ccccc2)CCCC1`, the “hERG current change (%, negative = inhibition) at 10uM” value is reported as -18.8%.
